Assay results published in patent US11872312B2, “Neuroprotective liposome compositions and methods for treatment of stroke” (The Board of Regents of The University of Texas System, priority 2012, dated 2024).

Experiments:
[1] = tested on: thrombotic stroke (blood clot in middle cerebral artery)
[2] = tested on: thrombotic stroke (blood clot in middle cerebral artery); conditions: rat, in vivo

Substance: tissue plasminogen activator [tPA]
- reduction in infarct volume ([1]; 3 days after occlusion): 69%
- Reperfusion rate after IV tPA ([1]; rat, in vivo, iv): 21 ± 17%
- infarct size (% of the whole brain) ([1]; tPA 10 mg/kg IV at 2 hours after occlusion, Xe-ELIP IV before tPA with ultrasound): 5.2±0.4%
- Death rate [2]: 31%
